The list shows a part of the results.
tested on: T1, C. trachomatis L2/434/Bu expressing GFP (CTL2-GFP); set-up: species or system HeLa; C. trachomatis total inclusion area by high-content imaging, normalised to DMSO; settings: total inclusion area; 28.5 h, 10 µM; inhibitor
T1 construct: L2/434/Bu GFP intracellular growth in HeLa cells
In short: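 After bulk GFP and resorufin fluorescence reads, cells were fixed, stained with Hoechst and imaged by high-content microscopy. Inclusion area and number (GFP) stood in for chlamydial growth, nuclei count (Hoechst) for host cell viability. MICs were derived as for the bulk readout.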

Compound	% of control remaining
c1ccc(Nc2ccccc2Nc2ccccn2)nc1 [CBK261806]	84.4656
Cn1cccc1CCC(=O)NC1CCN(Cc2ccccc2Cl)CC1 [CBK306814]	96.0012
Cc1ccc(C)c(NC(=O)C2CN(S(=O)(=O)c3ccccc3)CCN2S(=O)(=O)c2ccccc2)c1 (centres unmarked) [CBK267349]	77.1896
CN(C)CCNC(=S)Nc1ccc([N+](=O)[O-])cc1 [CBK266964]	90.2034
CCNC(=O)N1CC2(CCN(Cc3ccc(Cl)c(Cl)c3)CC2)c2ccccc21 [CBK126690]	86.1698
CCN1CCCC1CNC(=O)c1cccc(Cl)c1 (centres unmarked) [CBK262621]	103.804
Oc1cccc(/C=N/c2nnn[nH]2)c1 [CBK260977]	107.817
CC(NC(=O)c1ccccc1)c1nnc(SCC(=O)N2CCOCC2)n1C (centres unmarked) [CBK269647]	82.2586
CN1CCN(C2=NC(=O)CC(C(=O)Nc3ccccc3)N2)CC1 (centres unmarked) [CBK267884]	107.755
COCCNC(=O)C1CCN(c2nc3c(-c4cccc(C)c4)csc3c(=O)[nH]2)CC1 [CBK215629]	109.446
O=C(CCCc1ccccc1)Nc1cccnc1N1CCNCC1 [CBK028256T]	85.9296
O=C(CCN1CCCC1Cn1cncn1)NCCc1ccccc1 (centres unmarked) [CBK305677]	64.4748
COCCNc1nc(-c2cccc3cccnc23)cn2ccnc12 [CBK037314]	152.187
O=C(CSc1nnc2scc(-c3ccccc3)n12)Nc1nsc(-c2ccc(Cl)cc2)n1 [CBK266576]	108.883
COc1ccc(CNC(=S)Nc2cccc(C(F)(F)F)c2)cc1OC [CBK266977]	98.0442
Cn1c(=O)c2c(nc(Oc3ccccc3Cl)n2Cc2cccc(C(F)(F)F)c2)n(C)c1=O [CBK265940]	96.6108
Fc1ccc(-c2cncc(NCCc3ccncc3)n2)c(F)c1 [CBK065810]	97.1395
COc1ccc(C(=O)N[C@@H]2CC[C@@]3(c4ccc(OC)c(OC)c4)CCN(C)[C@H]3C2)c(OC)c1 [CBK074247T]	98.3302
Cc1cc(C)n(CCCn2cncc2-c2ccc3c(c2)CC(C)N3C)n1 (centres unmarked) [CBK281773]	126.486
CC(C)(C)SCCNC(=S)NCCO [CBK020686]	38.964
CN(C)CCN(C)c1cncc(-c2ccc3ccccc3c2)n1 [CBK037146]	103.011
CCN(CC)CCNC(=O)c1cc(=O)c2ccccc2o1 [CBK010691]	98.438
CNC(=O)C1(Cc2ccccc2-c2ccccc2)CCN(C(=O)CCC2CCCC2)CC1 [CBK285696]	114.346
COc1ccc(O)c(C(=O)c2cnn(C(=O)c3ccc(C)cc3)c2)c1 [CBK297546]	106.171
Cc1ccc(S(=O)(=O)NC2CCC(C(=O)O)CC2)cc1 (centres unmarked) [CBK286929]	98.1376
Cc1cc(C)n(CCC(=O)N2CCCCC2C(=O)O)n1 (centres unmarked) [CBK304678]	43.2034
CC1=C[C@@H](CNS(=O)(=O)c2ccccc2)[C@H](C(C)C)C[C@H]1CC(=O)N1CCCC1 [CBK289054]	81.4683

Compound	% of control remaining
CCN1CCN(C(=O)c2cccn2C)CC1 [CBK200248]	90.0641
O=C(O)c1cc(NC(=O)C2CC2)cc(C(=O)O)c1 [CBK268564]	102.129
O=C(CCC(=O)Nc1ccccc1)N/N=C/c1ccco1 [CBK261968]	103.129
O=c1nc(-c2ccco2)oc2ccccc12 [CBK152421]	66.2033
O=C(CC1(O)C(=O)N(Cc2ccc3c(c2)OCO3)c2ccccc21)c1cccnc1 (centres unmarked) [CBK269633]	77.9589
CN1CCN(C(=O)c2ccccc2NC(=O)NC2CCCCC2)CC1 [CBK269771]	101.785
O=S(=O)(Nc1cccc(C(F)(F)F)c1)c1ccc(OC(F)(F)F)cc1 [CBK043554]	70.2781
C=CCn1c(S)nnc1CCSCc1ccccc1 [CBK268849]	96.0722
CC(C)NC(=O)N1Cc2nc[nH]c2C[C@H]1C(=O)NCc1ccco1 [CBK288974]	96.558
CN(C)c1cccc(C(=O)Nc2nc3ccc(S(N)(=O)=O)cc3s2)c1 [CBK287602]	89.4278
Cc1cccnc1C(c1ccc(F)cc1)N(C)C(=O)C1CCN(CCc2ccc(Br)cc2)CC1 (centres unmarked) [CBK148397]	75.1138
COc1ccc(NC(=O)c2cnc(-c3cccc(C)c3)c(-c3ccco3)c2)cc1 [CBK037491]	64.2756
CCc1c(C(=O)NCc2cc(C3CC3)[nH]n2)[nH]c2ccc(F)cc12 [CBK282501]	103.692
Cc1cccc(-c2ccc(CC3(C(N)=O)CCN(C(=O)c4ccccc4)CC3)cc2)c1 [CBK285778]	84.8797
COc1ccc([C@H]2CN(C(=O)c3ccccc3)[C@@H]3CCN(Cc4ccsc4)C[C@H]23)cc1 [CBK285585]	80.5027
CC1CCN(S(=O)(=O)c2ccc(NC(=O)c3cccc(NC(=O)C(C)C)c3)cc2)CC1 [CBK265653]	91.3816
COc1ccc(C2C(C(=O)O)c3ccccc3C(=O)N2C)cc1 (centres unmarked) [CBK286847]	106.973
Cn1ncc2c1C(=O)NC1c3ccccc3C(=O)N21 (centres unmarked) [CBK113668]	104.531
COc1ccc(-n2c(SCC(=O)Nc3cccc(C(C)=O)c3)nc3sc(C)c(C)c3c2=O)cc1 [CBK091806]	93.3868
Cc1cccc(C(=O)NCc2nnc(SCC(=O)N3CCOCC3)n2C)c1 [CBK269723]	100.522
Cc1cc(C(=O)N2CCCCCC2c2c(Cl)cnn2C)on1 (centres unmarked) [CBK284916]	93.4415
CCCC(CCC)C(=O)Nc1ccc(NC(=O)c2ccco2)c(C)c1 [CBK058263]	73.2923
Nc1ccc(C(=O)Nc2nc3ccccc3s2)cc1 [CBK287608]	75.0096
CCCC(=O)N1CCCC(c2nnc(-c3cccs3)o2)C1 (centres unmarked) [CBK283057]	99.9528
O=C(Nc1nnc(-c2ccc3c(c2)OCCO3)o1)c1ccc2c(c1)OCCO2 [CBK287403]	111.627
Cc1cc2oc(=O)cc(C)c2cc1NC(=O)c1ccccc1C(=O)O [CBK286572]	99.9439
OC(CSc1ccc(F)cc1)CN1CCN(c2ccc(C(F)(F)F)cn2)CC1 (centres unmarked) [CBK074688]	97.8275

Compound	% of control remaining
COc1ccc(C(C)C)cc1-c1ccnc2[nH]c(=O)ccc12 [CBK073735]	101.888
Cc1cc(COc2nccnc2OC2CCN(Cc3ccc(Cl)cc3)CC2)no1 [CBK082949T]	100.813
NC(=O)c1cc(Cc2ccccc2)sc1NC(=O)c1cccnc1 [CBK268168]	96.6337
CC(C)Oc1cc(NC(=O)CS(=O)(=O)CC(=O)N(C)C)c(Cl)cc1Cl [CBK018112]	102.056
O=C(CSc1nnc(-c2cc(Br)ccc2O)n1-c1ccccc1)N1CCc2ccccc21 [CBK268346]	113.419
CCN(CC)CCOC(=O)NS(=O)(=O)c1ccc(Cl)cc1 [CBK288510]	104.452
CCc1nn(CC(=O)N(CC)CC)c(=O)c2cc3sc(C)cc3n12 [CBK284121]	106.707
Cn1c(=O)n(CC(=O)NCc2ccccc2F)c2cccnc21 [CBK283909]	72.8433
COc1cc(OC)nc(C(NC(=O)C2CCN(Cc3cccn3C)CC2)c2ccc(F)cc2)n1 (centres unmarked) [CBK148170]	92.7771
CSCCC(NC(=O)CCc1ccccc1)c1nnc2ccccn12 (centres unmarked) [CBK304350]	56.7358
c1ccc(CNc2nc(-c3ccncc3)cs2)cc1 [CBK058609]	54.3495
CC(=O)Nc1cccc(-c2nccnc2NCc2ccc3c(c2)OCO3)c1 [CBK037972]	100.668
OCC(O)/C=N/Nc1nc(Nc2ccccc2)nc(N2CCCCC2)n1 (centres unmarked) [CBK262042]	87.1901
CC(=O)N1CCC(NC[C@H]2C[C@@H]3CCN2C[C@@H]3c2cc(C3CCCC3)nc(C)n2)CC1 [CBK289129]	94.8399
FC(F)(F)c1nc2ccccc2nc1SC1CCCCC1 [CBK107205]	57.3313
CC(=O)c1cc2cnccc2[nH]c1=O [CBK089771]	54.8074
Cc1ccc(S(=O)(=O)N(C)CCCC#N)cc1 [CBK085945]	64.2578
O=S(=O)(c1ccc(C(F)(F)F)cc1Cl)N1CCN(Cc2ccc(F)cc2F)CC1 [CBK062739]	81.6422
Cc1ccc2nc(CNC(=O)N(C)CCc3c(C)n[nH]c3C)cn2c1 [CBK306984]	48.4871
COc1ccc(C2(C(=O)NCc3ccc(OC(F)(F)F)cc3)CC2)cc1 [CBK149823]	84.465
Cc1cccnc1Nc1ccc(C2CCCCN2Cc2ccc3nccnc3c2)cn1 (centres unmarked) [CBK286133]	96.2771
COc1ccc(CNC(=O)c2cc(S(=O)(=O)N3CCOCC3)cs2)cc1 [CBK307577]	42.2559
COC(=O)CCC(=O)Nc1ccc(S(N)(=O)=O)cc1 [CBK261351]	97.7808
NS(=O)(=O)c1ccc(NC2=NC(=O)C(CC(=O)Nc3ccccc3)S2)cc1 (centres unmarked) [CBK266417]	119.177
O=[N+]([O-])c1ccc2c(c1)oc1ccc(S(=O)(=O)N3CCCC3)cc12 [CBK268512]	69.289
Nc1ccc(S(=O)(=O)Nc2nccc(/C=C/c3ccc(Cl)cc3)n2)cc1 [CBK263254]	74.8397
